From paper PMC10290082, “Tau protein binds to the P53 E3 ubiquitin ligase MDM2” (Scientific Reports, 2023)

Target: T1, recombinant human MDM2 (human)
T1 construct: E3 ubiquitin-protein ligase MDM2, human; source: bought: Biotechne ([…]-050)
Assay: SPR; Tau variants immobilised on a CM5 chip by amine coupling; five twofold increasing concentrations of MDM2 from 37.5 nM, single-cycle kinetics; 25 °C; 10 mM HEPES pH 7.4, 150 mM NaCl, 3 mM EDTA, 0.005% Tween-20; Biacore 8K
Details: both partners purified

B1: recombinant human Tau_(2N4R) protein Pro301Leu (natural protein)
chain: not shown
notes: microtubule-associated protein Tau, human, 2N4R isoform with the autosomal dominant FTLD-Tau mutation P301L; numbers count on: the 2N4R isoform; also called Tau_(P301L); FTLD-Tau variant P301L; source: E. coli, purified recombinant (provided by Prof. Luca Colnaghi)
Kd: 0.0106 µM
